Here are results for 94 sequences from the supplement of paper PMC3334620.

Over roughly 33,000 sequences, “E-score (-0.5 to 0.5)” has its median near -0.043; the highest 2% begin near 0.37. Some of the results follow.

This experiment has as its target T1, Upc2 (UniProt Q12151).
T1 sequence: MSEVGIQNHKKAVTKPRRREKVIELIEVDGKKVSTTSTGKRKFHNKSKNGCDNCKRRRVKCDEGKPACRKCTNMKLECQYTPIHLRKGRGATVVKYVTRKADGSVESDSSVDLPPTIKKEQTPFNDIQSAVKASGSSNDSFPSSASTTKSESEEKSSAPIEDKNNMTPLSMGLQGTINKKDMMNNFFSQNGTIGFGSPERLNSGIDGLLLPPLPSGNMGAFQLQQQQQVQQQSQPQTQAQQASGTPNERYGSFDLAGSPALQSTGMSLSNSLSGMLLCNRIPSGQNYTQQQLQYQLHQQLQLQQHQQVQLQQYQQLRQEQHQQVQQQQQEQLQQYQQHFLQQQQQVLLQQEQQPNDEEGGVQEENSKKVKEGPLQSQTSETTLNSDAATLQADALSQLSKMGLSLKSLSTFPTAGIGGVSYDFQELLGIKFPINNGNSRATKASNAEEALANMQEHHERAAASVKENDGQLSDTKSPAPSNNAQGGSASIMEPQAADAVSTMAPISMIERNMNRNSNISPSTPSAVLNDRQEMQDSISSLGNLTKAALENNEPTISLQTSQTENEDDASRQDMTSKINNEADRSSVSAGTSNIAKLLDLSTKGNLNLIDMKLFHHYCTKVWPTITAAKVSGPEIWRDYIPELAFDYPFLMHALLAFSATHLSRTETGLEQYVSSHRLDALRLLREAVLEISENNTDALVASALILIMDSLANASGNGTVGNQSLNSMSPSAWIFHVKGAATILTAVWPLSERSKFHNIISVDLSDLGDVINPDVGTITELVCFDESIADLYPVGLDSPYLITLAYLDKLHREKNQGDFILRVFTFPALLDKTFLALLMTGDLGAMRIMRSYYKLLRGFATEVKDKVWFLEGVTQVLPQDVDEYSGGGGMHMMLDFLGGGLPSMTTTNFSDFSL
As to the kind of experiment: PBM E-score (8-mer binding enrichment) (E-score (-0.5 to 0.5)); higher = stronger / more preferred TF binding; most listed sequences are background and not binding sites. Conditions: protein concentration: 200 nM; construct: GST-full length. In short, it runs like this:
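Universal all-10-mer Agilent arrays, fresh or stripped once, were converted to double-stranded form by primer extension. GST-tagged yeast transcription factors from PURExpress in vitro transcription/translation, full-length or DNA-binding domain only, were applied at about 100-200 nM and detected with fluorescent anti-GST. After masliner normalisation, the Universal PBM Analysis Suite scored each ungapped eight-base word together with its reverse complement by E-score.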
As to GGGCGAGA, the “PBM E-score” value was -0.183. For CCCTTCCC the value was -0.26; for CTAAGACC, -0.109; for CTCCATAA, -0.23. As for AAGTGCCG, the figure is 0.0101. For GCTGGACA the value was -0.251. As for AAAAAACC, the “PBM E-score” value was -0.0385.

On to AGAGCCAA, for which the “PBM E-score” value was -0.0745. As for TGGGACCA, the figure is -0.236; as for GAGTAAAA, -0.0456; as for ACTAAATG, -0.174.

In the case of CAGGAAGC, the “PBM E-score” value is -0.0476. As for GCGTGCAA, the “PBM E-score” value is -0.0529. For AGTGCCAC the value was -0.207. Take AAAACCGG: the “PBM E-score” value was -0.11. As for AAGCTGGG, the figure is -0.281; as for AGATGTCC, -0.0285; as for GCCCACGA, -0.148. For GTGCGATA the value was 0.00531. As for ACTATGTA, the figure is 0.0442; as for ATGACTTG, -0.17. As for ACTCCAAT, the “PBM E-score” value is -0.0144.

Consider GCGTGAAA, for which the “PBM E-score” value was 0.0202. As for TCCTCCAA, the figure is -0.215; as for CTGAACTC, -0.177.

For ATGACTGC, the “PBM E-score” value was -0.144.

As to GAGTGTGC, the “PBM E-score” value was -0.0494. With AATACCCG, the “PBM E-score” value is 0.114. As for CTGGCAAA, the figure is -0.0535.

Turning to ATCTTCGA, the “PBM E-score” value is -0.0389. As for GAGCGCCC, the figure is -0.211; as for CACAATTC, -0.0348; as for TACATAAA, -0.0479. As for GAGAATGC, the figure is 0.147. As for CCCCAAGC, the figure is 0.0443; as for CGGCCGAG, 0.0445.

In the case of ACAACGCC, the “PBM E-score” value was -0.0512. As for TCAATAGA, the figure is -0.114. As for CCTAGGGA, the figure is -0.243. For ATGGCCTC the value was -0.144; for AACCGAGC, 0.325; for AGCGAGTC, 0.171. Regarding AGTGCAAG, the “PBM E-score” value came to 0.157. For CGTGATTC the value was -0.208.

On to ACGGGGGC, for which the “PBM E-score” value stood at 0.109. As for TCGCCACA, the figure is 0.0491; as for CATAGTAA, 0.0847; as for CCTTTGAA, -0.177. Regarding GGGGCCGA, the “PBM E-score” value is -0.161.

CTGTGGCA: the “PBM E-score” value is -0.2.

As to TAGATCCA, the “PBM E-score” value is -0.133. As to AAGGTACT, the “PBM E-score” value was 0.00877. As for ACTATCAC, the figure is 0.0913. As for CAAAGTGC, the figure is -0.207. In the case of GATCCTAC, the “PBM E-score” value worked out at 0.0781. As for ACTCCCCT, the figure is -0.143; as for CGCCACAA, 0.102; as for TGGTGACA, -0.101. For CCAGACAG the value was -0.187; for ATCGCGAT, 0.187; for ATCTCTGG, -0.144. As for CGCTGGTC, the figure is -0.189. Take AGGTGTAA: the “PBM E-score” value was -0.059. For AAGTACCC, the “PBM E-score” value is -0.113. For CATATATC the value was 0.114; for ATCTGGCG, -0.204. Take ACTCGTAA: the “PBM E-score” value was 0.433. For the sequence CCTGTTAG, the “PBM E-score” value turned out to be 0.0807. For GAGGCGGA the value was -0.107; for CCAACAGC, -0.25. As for GACCTTAC, the figure is 0.0154. For CGTGAATA the value was 0.0229. For the sequence CGGATTAG, the “PBM E-score” value is -0.0333. For TCCGCAAA the value was -0.052; for GCGGCTGA, -0.15; for AACGTCCA, -0.0485. Take AAGATCTA: the “PBM E-score” value is -0.054. For CCCTATAC the value was 0.342; for CCCGGTGC, -0.228; for ATTGGCGG, -0.11. For ACCCCAAG the value was -0.108; for ATCGGACA, 0.121. On to CGGAAGCA, for which the “PBM E-score” value was determined as 0.11.

Turning to ATCTAACA, the “PBM E-score” value is -0.0339. As for ATGGAGCG, the figure is -0.0147. CGGCGGTA: the “PBM E-score” value is 0.129. As for GGGAAGGA, the figure is -0.112; as for GTTATAGA, 0.0588; as for AAAAAATG, 0.104. As for CCAACGGC, the figure is -0.232; as for AACTCACG, 0.036; as for TAGTGAGA, -0.00677. For CCTATACG the value was 0.487.

Regarding TAGTTCAA, the “PBM E-score” value is -0.083.
